Data as given in the supplement of paper PMC12632987.
Over roughly 4,500 sequences, “median log2 fold change of GCK-ALFA target abundance (FLAG IP / Myc IP barcode read proportion)” has its median near 0.078; the lowest 2% begin near -0.6. The list shows a part of the results.

B1: GBRAP_9_7180 (protein)
chain: EEEKKKKILKVVEEEGEEAIELAPEEKKPIMKKLMDEFIEKLKKAAEDKSKTLEEILKLLEELSEKIVEEAKKVVDEETYKLIEAELGTAILESEEIIEE
B2: GBRAP_14_3801 (protein)
chain: MEKRKKAINDIADEAEEELEEILADAPEEVRAAVLALVREARDKIIEENLTPDEVDELEDELLAEVAEILADAPEEVRAQVLATVAVHMGEIILEIEELE
B3: GBRAP_137_3615 (protein)
chain: KKVTITFSEEDGTAFAEIEADESVDLEKLEELIEEVAKEHGVKLVIAESEDPNDKVFYLVGTPEKIIAAVKDLIERLKKELGAEVVLESDGAEKLVEEVK
B4: GBRAP_125_3148 (protein)
chain: MKEKAIRLAIALAEAAGFSEEEIAELREIAEASDPRQAVVAVLLAAGFEEAAELAEEVLDKLTEEEFEELIKLAEESKDKSLEEFKKELLEKLKELKKKL
B5: GBRAP_184_5116 (protein)
chain: EVLEYELKVENKEEAEEKLEKVKEEAKKKKATVLVIVEVKNLTKEMAKTIVEKLAEIKKAGAKEVLALLESDKLSEEVLDTLDEGAKENGLDNLVIAYEE
B6: GBRAP_83_6967 (protein)
chain: AEKVTVVTTPDRVDEAIEAAKDLAEEEGKEVTVALVGDPEGVVAAARKVAEALKDLPNVSIEAVVTNVRAEEAERARRELEAIAEEHGLKLEFHADLIPP
B7: GBRAP_160_4395 (protein)
chain: SENFEKLKKEIEEIFEEAKKMIEGETPEERKVIVDVAFGEILLEIEENEEVSDELEEEFGKLLDKYRAEARKAVDEGLEALKKVIEKALKELKELIEKNE
B8: GBRAP_184_5229 (protein)
chain: TTVRRAVEAETAEELIAKVDAVVAEAAAAGERLALHVIAENVDLEGIERIMAYLAALKAAGRIADATLVVTDERSEEETDRLVALADRHGVRLVLALSEE
B9: GBRAP_125_3037 (protein)
chain: SLDAQVEALARIARRLGLSEEEVAELAELARRHGVKGALIALLLAEGLEELADLVARLSDAQVAAVLAELLAWLDAHPDATAEEVVARLRELVEAALAAA
B10: GBRAP_52_5877 (protein)
chain: MLEEAVKLLEEAVKAKKEGKEKELKEILKKIVEEFSEETILAAVKKLAEKVLTKSLEEAEAFYETVELLSDILLEAGKSEEIASLMEAIAGATLYTVEQK
B11: GBRAP_26_5434 (protein)
chain: IEETEREAEEKMKKAAAELGDPNKAAAALAEALTLLEEAVEEIEEKNLTKEEAEKLVKEKAKEFYEFLKELGVDEEKAEKLTKVFEEELKKVAEALLKER
B12: GBRAP_128_3533 (protein)
chain: STEEVIEYAKEVVEKIKNSDVETAYKITKEFIEKLKTWSLEEVEAAVEVLEENLPLLSAEKLEAVADAIEENIHTLSPEKQRLLNGVRVEALNLAEELEE
B13: GBRAP_166_4953 (protein)
chain: SMEEIIEEARRRLEELAEEMKGLDEEGRQEKLAEMAEVLAEAREAGASEEELLELAELALKLVKEAGGDVTAFLGAILMFVDLSEEEIEKLEEIRDKVLA
B14: GBRAP_83_6877 (protein)
chain: AEEITVVGNDDNIEEAFEAAIDLHLEDGYKVSIELIISRESLPLLKEQVKKMFEKGVEAEIEIYARGATKEEAEKLKEELEAIAKEAGVEAKVEVTVIEE
B15: GBRAP_35_5520 (protein)
chain: SSEEEEVEMLVATIEDLTLAVPDMDVETTVQIANQLIEHAERLAEDVKDNVEALERLRRALEALREALEKHYGDDPLAQETIARIRELIARIDELIKEAK
B16: GBRAP_184_5255 (protein)
chain: MTLEKEIKVKNVEELKEKLEEINKEALEKKADVLILLDVEKLTKEMADALFESIKEMKAKGYTGKVTIGITADLTEEMIDYVLEKADEAGVNVTLAIPEE
B17: GBRAP_57_6475 (protein)
chain: MERLKAVEEAAERALALIDARAPREEILAAVRELAELLSEETLRDVLLIADPEAPEDLSKEEAIARLVALAAAYLDAGDYDGLRRLVELMLGTAEMDFEE
B18: GBRAP_166_4988 (protein)
chain: MVEELIEELKKKTEEVIKEIEEADDEEVFELLVDFGEFLEELREKGVPLEEILEAAVKVAVAAAKKIGKPNLAVGIIANEAGLDEEELEKLEEAVKKELA
B19: GBRAP_128_3429 (protein)
chain: SMEEIVEEVRKLLEEMLTADKETQRKLAEEIAELMLESDLETAEAIAEVVEEMLPKFTAEQLEILADVGREMLPKFTPEKQEILAGVIVDALNQAEELEE
B20: GBRAP_160_4252 (protein)
chain: EEEIEKIEEEIEEEAEVLLEALKESDKSDWPAFARAMAGDIVQIVIENPNASEETIEKVDEAAEELAERLIANKDASPEEIEEILEEGVEEIIEIVKEEI
B21: GBRAP_125_2994 (protein)
chain: SEEEVLENLRLVLRALGFDDEDVEEAVRLAREHGIRGTLYAALLALGYEELADLVEKLSEEETREALRRVAEELKKNPDLTPEEVKALLLEVLEKILAER
B22: GBRAP_106_2557 (protein)
chain: SRAARAEALLAEARAEAEAELAALDAWLEKHKSELSPEEIEAIKTYAGKAAVGRLLRRMVEAGLISPETARAIEREVLARAGLTPEELLALAEELVRAAV
B23: GBRAP_160_3988 (protein)
chain: EEEKKKLLKEIEEIFKETYELASGEDPENRLTVVRVHMGEILLLAEESGILSEESIEKIDEILDELVEKVAANPDMTDEELKALLEEALKKIKEIIEAEK
B24: GBRAP_184_5266 (protein)
chain: KVKEYEIEASNPEEIKEKLEKIAEEVKNTKADLIILAKIENPTPEKIKTLMEKLGEIKKAGYASSITVGIESELSEEVIDLAYELADKYGIKVTVALSEE
B25: GBRAP_26_5490 (protein)
chain: FEEEILKELREEIRKILADEDPTLRAAVIAAAEDLLLEAGEEIEKNKNDEKKIEEAKKEALEEMEKDLADFGLSEEKRAAVVEALKKALEKLEKEVKKKS
B26: GBRAP_160_4353 (protein)
chain: SETVERLIEKIREVTEEVIEAADELSVEEVKIIAAGEFGAVFMEAAEDERISDEMEDVILEGRDKVLEFLEENENASVEEIKKGIREITEETIEKLKEIA
B27: GBRAP_52_5910 (protein)
chain: MRERLRKLAEEMLKLVKAGKLEEARELARKLARELSDEELELFIEEVEKLVLEAPKEELPYFWKLAEIVAEELEREGRDEVLADLLLARTAAAIYKVEQK
B28: GBRAP_160_4823 (protein)
chain: SETVERWKKLIDERAAETIALVKGQTAEERAAIAAVEFGQLILELSEDPNFTDELEDEVAAIGDALVAEIAANPDLTDEELTALIEKAAAEIKAAIEKAF
B29: GBRAP_160_4686 (protein)
chain: SSKVEKAKKFIEEEFKEVVEYHEEMTKEELAALVRVAFGEIILELEELGLLTDELGKLIEEKEKEIVDYILKNPNITKEELEKKLEEAKKEIVKKLEEIS

Target: GABARAP, O95166
Sequence (O95166 whole entry, the tested form may be a part): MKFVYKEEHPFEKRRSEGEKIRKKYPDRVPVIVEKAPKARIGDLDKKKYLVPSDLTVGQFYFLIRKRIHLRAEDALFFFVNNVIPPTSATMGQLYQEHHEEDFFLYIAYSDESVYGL
Test: median log2 fold change of GCK-ALFA target abundance (FLAG IP / Myc IP barcode read proportion) (log2 ratio); each designed protein is fused to an ALFA-tag nanobody in HEK293 cells to bring the named protein to FLAG-tagged glucokinase (GCK); Myc marks an untargeted standard; higher = target protein stabilised (more abundant)
Settings: target protein: 3xFLAG-MCP-GCK-ALFA reporter; HEK293 landing pad (RPLP)
In short: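 Binders fused to an ALFA nanobody were recombined as a library into HEK293 landing-pad cells, which were induced with 2 μg mL^−1 doxycycline and then transfected to express a FLAG-tagged target and a Myc-tagged standard. After 48 h, circular RNA barcodes recovered by anti-FLAG and anti-Myc immunoprecipitation of lysates were reverse transcribed, amplified and sequenced. Each binder's target abundance is the median log2 ratio of FLAG to Myc barcode read proportions, from barcodes present at ≥10^−7 in both replicates, binders carrying ≥3 barcodes per replicate, a 10^−6 pseudocount and pooled replicates.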

Binder	median log2 fold change
B1	0.11
B2	-0.206
B3	0.199
B4	0.158
B5	0.157
B6	0.0202
B7	-0.132
B8	0.131
B9	-0.351
B10	0.168
B11	0.223
B12	0.15
B13	0.08
B14	0.0394
B15	0.206
B16	-0.000826
B17	0.257
B18	-0.0091
B19	0.259
B20	0.234
B21	0.0827
B22	-0.49
B23	-0.199
B24	0.225
B25	0.347
B26	0.014
B27	0.121
B28	0.0772
B29	-0.148
